In all, about 33,000 sequences were measured (“E-score (-0.5 to 0.5)”: median about -0.054, highest 2% from about 0.39 on). The list shows a part of the results.
Each sequence was assayed against Ylr278c (UniProt Q05854) (assay: PBM E-score (8-mer binding enrichment) (E-score (-0.5 to 0.5)); higher = stronger / more preferred TF binding; most listed sequences are background and not binding sites). Details: protein concentration: 200 nM; construct: GST-DNA-binding domain.
Method in brief: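 For each ungapped eight-base word taken together with its reverse complement, the Universal PBM Analysis Suite assigned an E-score. Binding data came from GST-tagged yeast transcription factors, applied at about 100-200 nM, on universal all-10-mer Agilent arrays made double-stranded by primer extension. Fluorescent anti-GST marked bound protein, and scans were normalised with masliner.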

| Sequence | PBM E-score |
| --- | --- |
| ATTACGAC | -0.0801 |
| GAGTCCCA | 0.0804 |
| CCCGTTCC | 0.162 |
| AAACTTAA | -0.0688 |
| AGTTAGGG | -0.149 |
| CAACATAC | -0.0104 |
| GAGTGCGA | 0.00334 |
| CTTAAGCC | 0.0779 |
| ACTTCACA | -0.208 |
| CCCAACGC | -0.0231 |
| ACAAGAAT | -0.0858 |
| CAGAGCAG | -0.245 |
| ACGGCCCG | 0.115 |
| AATTGTAC | -0.0759 |
| ACTCTCTC | 0.0619 |
| ATGCGTTG | -0.0486 |
| AGTATACA | -0.144 |
| ACTGTTTG | -0.251 |
| GACTTAAA | -0.0827 |
| CTGGGAAC | -0.0778 |
| ACTTTGGA | -0.236 |
| GGTTTAAC | 0.067 |
| GCATCCAC | -0.0261 |
| TACAACAA | -0.0845 |
| CGCTGAGA | -0.0287 |

| Sequence | PBM E-score |
| --- | --- |
| TGCGTACA | -0.265 |
| ACTGTCCG | 0.31 |
| CTGTGGTA | -0.222 |
| AACCTTAC | -0.0631 |
| GCCAGAAA | -0.00062 |
| ACACTTCT | -0.105 |
| AGGGCGGC | 0.078 |
| ATTGATAG | -0.132 |
| CCATATAC | -0.00364 |
| CAGCAGTC | -0.0921 |
| ATATAACA | -0.033 |
| CTATGAAA | -0.141 |
| GACACCTA | -0.0802 |
| GTTCATAA | -0.217 |
| GTCTGTTA | -0.13 |
| AATCTACC | 0.0783 |
| ATCGAGAC | -0.0882 |
| AGCCATAT | -0.111 |
| ATCGTGCA | -0.126 |
| CAGGTTCA | -0.299 |
| CTGGACTA | -0.129 |
| CCAAGGAG | -0.0113 |
| CGTGTGAA | -0.0243 |
| GCGATCTA | -0.056 |
| CCCTATAA | -0.0302 |

| Sequence | PBM E-score |
| --- | --- |
| ACGTACTC | 0.00424 |
| TCCATAAA | -0.212 |
| CGATCCTC | -0.00507 |
| CTCTGGTC | 0.058 |
| AAGGCAGA | -0.156 |
| GTCTCCAC | -0.217 |
| GATCCAGA | -0.0826 |
| CAGCGATA | -0.0473 |
| AGATAATC | 0.15 |
| AATGGTTA | -0.069 |
| CCACGCCG | 0.143 |
| AAGACTAT | -0.207 |
| AAGATTCA | 0.021 |
| GACACAGA | 0.0642 |
| CAGCCTAA | -0.285 |
| AAGGGACT | -0.243 |
| CTCCTCGA | -0.189 |
| ACGGACAC | 0.194 |
| CAACACGG | 0.108 |
| CTTCGCGC | 0.0777 |
| CCAACTAC | -0.0123 |
| CCGCTCAG | 0.0758 |
| CCATCGAG | -0.0825 |
| TATTAATA | -0.00867 |
| AAGTGGTA | -0.0771 |

| Sequence | PBM E-score |
| --- | --- |
| ATTTTTGA | -0.0737 |
| AGGGCTCG | -0.111 |
| CCTCACCA | -0.0339 |
| AAGAAATG | -0.012 |
| ACCGAGGG | -0.184 |
| CCCGGGTC | 0.286 |
| AGCGCGGC | 0.083 |
| CGGGTAAA | 0.156 |
| CTACTCTA | -0.188 |
| CGATTAAA | 0.0584 |
| GATCTGAC | -0.0839 |
| ATTTGGTA | -0.0616 |
| AGCGTTCC | 0.0209 |
| GATTAATC | 0.337 |
| CTATTGAG | -0.213 |
| CATCCTCG | 0.138 |
| ATATTATG | 0.0701 |
| GTCGCTAA | -0.0503 |
| ATATGCAA | -0.0841 |
| CTGGTCCC | -0.263 |
| CCAACGAG | -0.167 |
| AACTATTA | -0.0952 |
| ACTTAATG | -0.0551 |
| AGGTACTG | -0.188 |
| GGGACCAC | 0.0293 |

| Sequence | PBM E-score |
| --- | --- |
| ATTAGACA | -0.251 |
| ACGGAGAT | 0.465 |
| AAATTAAC | 0.0288 |
| AGCCGATG | 0.209 |
| TTTCGAAA | -0.185 |
| CCTCGTTC | -0.00096 |
| TATTACGA | -0.038 |
| ATATTGAT | 0.00448 |
| AATCCCAA | -0.0453 |
| ATCAAACA | -0.115 |
| CACACCTA | 0.0075 |
| CGGGGCCA | 0.249 |
| ACTGGCAT | -0.256 |
| CAATTATG | 0.0405 |
| ACGCATAT | -0.119 |
| TGTAGACA | -0.19 |
| CATGATAA | -0.0695 |
| CGGCTCAG | 0.23 |
| CTGTTCTA | -0.0866 |
| ACGCATAG | -0.0915 |
| CTCGGAAC | 0.381 |
| ATCGTGTA | -0.107 |
| ACGCATCT | -0.0343 |
| GCATGTCC | 0.14 |
| CAGTCGCA | -0.248 |

| Sequence | PBM E-score |
| --- | --- |
| ACCGAATC | 0.159 |
| CTGCCACC | -0.111 |
| ACAAGCGC | 0.114 |
| ACAAGTGG | -0.203 |
| CGATGAAC | 0.058 |
| CCTCGCGA | -0.0607 |
| AGGCGGTC | -0.0519 |
| ATCCGTAC | 0.112 |
| ACATGCAA | -0.0561 |
| CTTAAACC | -0.135 |
| GACAATCA | -0.0295 |
| CACGTGGC | -0.274 |
| CCTGTTTA | -0.023 |
| CGAGTAAG | 0.133 |
| GGACCACC | 0.0421 |
| GGCCCACA | -0.0418 |
| CTTCAAAC | -0.0636 |
| AGCTAGTA | -0.114 |
| GCGATGAA | 0.0129 |
| AGTATTTA | -0.134 |
| AGCTAGCT | -0.257 |
| AACACGGT | 0.0118 |
| GAGGAGGC | 0.00186 |
| CTGAAACA | -0.112 |
| ATGGTAGA | -0.227 |

| Sequence | PBM E-score |
| --- | --- |
| CTTTCTTC | -0.133 |
| CGATGTAG | -0.122 |
| AACAAATT | -0.0211 |
| CTAACGGA | 0.326 |
| GGAACATA | 0.00436 |
| AGAAATAC | 0.116 |
| AGGATACG | -0.244 |
| AGCATGGG | -0.18 |
| GAATGAGA | 0.0345 |
| AATGTGCA | -0.0845 |
| TTGCGAAA | 0.167 |
| AAGTTTCC | 0.136 |
| AAGCAAGC | -0.0811 |
| GTAAATAC | 0.0134 |
| AGTGAGCG | -0.152 |
| GGAGTGCA | 0.196 |
| GAAAAGTA | -0.0739 |
| AGAGCTAG | -0.236 |
| CTAGAGGA | -0.216 |
| GTAGTCAC | -0.148 |
| ACTTCGAT | -0.116 |
| CGCTACTC | 0.116 |

— the supplement of paper PMC3334620
